# Results taken from the supplement of paper PMC8728848.
# Some of the results follow.
# What was measured:
# Test in all cases: glycan array binding signal (z-score within array); higher = stronger binding
# Settings in all cases: glycan notation: IUPAC condensed, linker removed
# [1] = target: Man(a1-2)Man(a1-3)[Man(a1-2)Man(a1-6)]Man(a1-6)[Man(a1-2)Man(a1-2)Man(a1-3)]Man
# Outline: (§1)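 Glycan array data were curated from 3228 arrays in the Consortium for Functional Glycomics database and kept only where the protein sequence was available. Glycan names were converted to IUPAC-condensed notation, and columns mapping to the same glycan were averaged. The binding signal is a within-array Z-score, averaged across arrays of the same protein sequence at different concentrations or buffers and across linkers. Negative Z-scores can be read as non-binding.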
# [2] = target: Man(a1-2)Man(a1-3)[Man(a1-2)Man(a1-6)]Man(a1-6)[Man(a1-2)Man(a1-2)Man(a1-3)]Man(b1-4)GlcNAc(b1-4)GlcNAc
# Outline: as §1
# [3] = target: Man(a1-2)Man(a1-3)[Man(a1-6)]Man(a1-6)[Man(a1-2)Man(a1-3)]Man(b1-4)GlcNAc(b1-4)GlcNAc
# Outline: as §1
# [4] = target: Man(a1-2)Man(a1-6)[Man(a1-3)]Man(a1-6)[Man(a1-2)Man(a1-2)Man(a1-3)]Man
# Outline: as §1
# [5] = target: Man(a1-2)Man(a1-6)[Man(a1-3)]Man(a1-6)[Man(a1-2)Man(a1-2)Man(a1-3)]Man(b1-4)GlcNAc(b1-4)GlcNAc
# Outline: as §1
# Man(a1-3)[Man(a1-6)]Man = target: Man(a1-3)[Man(a1-6)]Man
# Outline: as §1
# [6] = target: Man(a1-3)[Man(a1-6)]Man(a1-6)[Man(a1-2)Man(a1-3)]Man(b1-4)GlcNAc(b1-4)GlcNAc
# Outline: as §1
# [7] = target: Man(a1-3)[Man(a1-6)]Man(a1-6)[Man(a1-3)]Man
# Outline: as §1
# [8] = target: Man(a1-3)[Man(a1-6)]Man(a1-6)[Man(a1-3)]Man(b1-4)GlcNAc(b1-4)GlcNAc
# Outline: as §1
# [9] = target: Man(a1-3)[Man(a1-6)]Man(b1-4)GlcNAc(b1-4)GlcNAc
# Outline: as §1
# [10] = target: Man(a1-3)[Man(a1-6)]Man(b1-4)GlcNAc(b1-4)[Fuc(a1-6)]GlcNAc
# Outline: as §1
# Man(a1-6)Man = target: Man(a1-6)Man
# Outline: as §1
# Man(b1-4)GlcNAc = target: Man(b1-4)GlcNAc
# Outline: as §1
# MurNAc(b1-4)GlcNAc = target: MurNAc(b1-4)GlcNAc
# Outline: as §1
# Neu5Ac(a2-3)Gal = target: Neu5Ac(a2-3)Gal
# Outline: as §1
# [11] = target: Neu5Ac(a2-3)Gal(b1-3)GalNAc
# Outline: as §1
# [12] = target: Neu5Ac(a2-3)Gal(b1-3)GalNAc(b1-3)Gal(a1-4)Gal(b1-4)Glc
# Outline: as §1
# [13] = target: Neu5Ac(a2-3)Gal(b1-3)GalNAc(b1-4)[Neu5Ac(a2-3)]Gal(b1-4)Glc
# Outline: as §1
# [14] = target: Neu5Ac(a2-3)Gal(b1-3)GalNAc(b1-4)[Neu5Ac(a2-8)Neu5Ac(a2-3)]Gal(b1-4)Glc
# Outline: as §1
# [15] = target: Neu5Ac(a2-3)Gal(b1-3)GalNAc6S
# Outline: as §1
# [16] = target: Neu5Ac(a2-3)Gal(b1-3)GlcNAc
# Outline: as §1
# [17] = target: Neu5Ac(a2-3)Gal(b1-3)GlcNAc(b1-2)Man
# Outline: as §1
# [18] = target: Neu5Ac(a2-3)Gal(b1-3)GlcNAc(b1-2)Man(a1-3)[GlcNAc(b1-4)][Neu5Ac(a2-3)Gal(b1-3)GlcNAc(b1-2)Man(a1-6)]Man(b1-4)GlcNAc(b1-4)GlcNAc
# Outline: as §1
# [19] = target: Neu5Ac(a2-3)Gal(b1-3)GlcNAc(b1-2)Man(a1-3)[Neu5Ac(a2-3)Gal(b1-3)GlcNAc(b1-2)Man(a1-6)]Man(b1-4)GlcNAc(b1-4)GlcNAc
# Outline: as §1
# [20] = target: Neu5Ac(a2-3)Gal(b1-3)GlcNAc(b1-2)[Neu5Ac(a2-3)Gal(b1-3)GlcNAc(b1-4)]Man(a1-6)[Neu5Ac(a2-3)Gal(b1-3)GlcNAc(b1-2)Man(a1-3)]Man(b1-4)GlcNAc(b1-4)GlcNAc
# Outline: as §1
# [21] = target: Neu5Ac(a2-3)Gal(b1-3)GlcNAc(b1-3)Gal(b1-3)GlcNAc
# Outline: as §1
# [22] = target: Neu5Ac(a2-3)Gal(b1-3)GlcNAc(b1-3)Gal(b1-4)GlcNAc
# Outline: as §1
# [23] = target: Neu5Ac(a2-3)Gal(b1-3)GlcNAc(b1-3)GalNAc
# Outline: as §1
# [24] = target: Neu5Ac(a2-3)Gal(b1-3)GlcNAc(b1-4)Gal(b1-4)Glc
# Outline: as §1
# [25] = target: Neu5Ac(a2-3)Gal(b1-3)GlcNAc(b1-6)GalNAc
# Outline: as §1
# [26] = target: Neu5Ac(a2-3)Gal(b1-3)GlcNAc6S
# Outline: as §1
# [27] = target: Neu5Ac(a2-3)Gal(b1-3)[Fuc(a1-4)]GlcNAc
# Outline: as §1
# [28] = target: Neu5Ac(a2-3)Gal(b1-3)[Fuc(a1-4)]GlcNAc(b1-3)Gal(b1-3)[Fuc(a1-4)]GlcNAc
# Outline: as §1
# [29] = target: Neu5Ac(a2-3)Gal(b1-3)[Fuc(a1-4)]GlcNAc(b1-3)Gal(b1-4)[Fuc(a1-3)]GlcNAc
# Outline: as §1
# [30] = target: Neu5Ac(a2-3)Gal(b1-3)[GlcNAc(b1-6)]GalNAc
# Outline: as §1
# [31] = target: Neu5Ac(a2-3)Gal(b1-3)[Neu5Ac(a2-6)]GalNAc
# Outline: as §1
# [32] = target: Neu5Ac(a2-3)Gal(b1-3)[Neu5Ac(a2-6)]GlcNAc(b1-3)[Fuc(a1-3)[Gal(b1-4)]GlcNAc(b1-6)]Gal(b1-4)Glc
# Outline: as §1
# [33] = target: Neu5Ac(a2-3)Gal(b1-3)]Neu5Ac(a2-3)Gal(b1-4)]GlcNAc
# Outline: as §1
binder,measurement,setting,value
rCnSL-proA (Clitocybe nebularis) (protein) AAFFSLVVLLALLPFGIHASALPSTELTPRVNPNLPGPNDVFVGFRGTNNIVGAIYEKDGIKDTPLNNGADAEMGPGSYITDGLFTARIFASGSAGNNPGTTATVCKIYASGVQWRGAPKGYIPVAYFGNGPTAEQRRQTYLRTLGLPGTAIRFGNLNTNPGQGPTAPRQMVVPPGPLRSLLKASCFPAADTRLPQTLHYFEKRVDWNIITAADSQTWGH,glycan array binding signal (z-score),[1],-0.57
same,glycan array binding signal (z-score),[2],0.843
same,glycan array binding signal (z-score),[3],-0.651
same,glycan array binding signal (z-score),[4],-0.958
same,glycan array binding signal (z-score),[5],0.134
same,glycan array binding signal (z-score),Man(a1-3)[Man(a1-6)]Man,-0.023
same,glycan array binding signal (z-score),[6],1.72
same,glycan array binding signal (z-score),[7],-0.086
same,glycan array binding signal (z-score),[8],0.14
same,glycan array binding signal (z-score),[9],-0.212
same,glycan array binding signal (z-score),[10],-0.498
same,glycan array binding signal (z-score),Man(a1-6)Man,-0.764
same,glycan array binding signal (z-score),Man(b1-4)GlcNAc,-0.161
same,glycan array binding signal (z-score),MurNAc(b1-4)GlcNAc,-0.247
same,glycan array binding signal (z-score),Neu5Ac(a2-3)Gal,-0.334
same,glycan array binding signal (z-score),[11],-0.476
same,glycan array binding signal (z-score),[12],-0.224
same,glycan array binding signal (z-score),[13],-0.333
same,glycan array binding signal (z-score),[14],0.303
same,glycan array binding signal (z-score),[15],-0.283
same,glycan array binding signal (z-score),[16],-0.334
same,glycan array binding signal (z-score),[17],-0.095
same,glycan array binding signal (z-score),[18],-0.468
same,glycan array binding signal (z-score),[19],5.37
same,glycan array binding signal (z-score),[20],0.156
same,glycan array binding signal (z-score),[21],0.093
same,glycan array binding signal (z-score),[22],-0.252
same,glycan array binding signal (z-score),[23],-0.122
same,glycan array binding signal (z-score),[24],0.012
same,glycan array binding signal (z-score),[25],0.201
same,glycan array binding signal (z-score),[26],0.754
same,glycan array binding signal (z-score),[27],-0.549
same,glycan array binding signal (z-score),[28],-0.195
same,glycan array binding signal (z-score),[29],-0.238
same,glycan array binding signal (z-score),[30],-0.348
same,glycan array binding signal (z-score),[31],-0.43
same,glycan array binding signal (z-score),[32],0.044
same,glycan array binding signal (z-score),[33],-0.475
